The source of these data is the supplement of paper PMC5919970.

Where a name gives a salt, the structure may show the parent alone. Whole data set: some 2,000 compounds, median “fractional viability relative to vehicle” near 0.92, cut for the lowest 2% near 0.11. The list shows a part of the results.

The subject of the experiment is TYKNU. Put plainly: fractional viability relative to vehicle; TYKNU is a high-grade serous ovarian cancer line; higher = less growth inhibition. To be noted: 72 h, genotype: OPA1 knockout (sgOPA1 #2). The method, boiled down: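 TYKNU control cells or lentiCRISPRv2 knockout derivatives were seeded at 500 cells per well into drug-stamped 384-well plates holding a ~2100-compound library at 2 or 10 μM, in duplicate. Cells were grown at 37 °C in 5% CO2 in RPMI 1640 with 10% FBS, and drug treatment lasted 72 h. Viability was read by Cell Titer Glo luminescence. Duplicate treatment wells were averaged and normalised to duplicate control wells from the same plate position.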

As for `O=C1C(=O)N(Cc2ccc(Cl)c(Cl)c2)c2ccccc21` [Apoptosis Activator 2], the fractional viability reads like this: (2uM) 0.461; (10uM) 0.287.
In the same order, the values of `O=C(NC1CCOCC1)c1ccc(-c2cc(-c3c[nH]nc3-c3ccccn3)ccn2)cc1` are 1.21 and 1.45.
Regarding `CN(C)CCc1c[nH]c2ccc(C[C@H]3COC(=O)N3)cc12` [Zolmitriptan], the fractional viability reads like this: (2uM) 1.1; (10uM) 0.856.
Turning to `O=C1c2cccc(O)c2C(=O)c2c(O)cc(CO)cc21` [Aloe-emodin], the fractional viability by setting is: (2uM) 0.957; (10uM) 0.96.
In the same order, the values of `CN(C)CCC=C1c2ccccc2C=Cc2ccccc21` [Cyclobenzaprine HCl] are 0.883 and 0.9.
`O=c1[nH]c(=O)n([C@H]2C[C@H](O)[C@@H](CO)O2)cc1F` [Floxuridine]: the fractional viability reads like this: (2uM) 1.25; (10uM) 1.14.
The matching figures for `C/C(=N\NC(=S)N1CCC1)c1ccccn1`: 0.768 and 0.465.
In the same order, the values of `NC(=O)c1ncn([C@@H]2O[C@H](CO)[C@@H](O)[C@H]2O)c1N` [Acadesine] are 1.04 and 0.819.
The matching figures for `CC(c1cc2ccccc2s1)N(O)C(N)=O` (stereo unspecified) [Zileuton]: 1.17 and 1.
Regarding `CC1=C(C(=O)OC2CCCCC2)C(c2ccc([N+](=O)[O-])cc2)C2=C(CC(C)(C)CC2=O)N1` (stereo unspecified), the fractional viability is, setting by setting: (2uM) 0.841; (10uM) 0.799.
The matching figures for `C[C@@H]1C(=O)O[C@H]2C[C@@]34[C@H]5C[C@@H](C(C)(C)C)[C@]36[C@@H](OC(=O)[C@@H]6O)O[C@@]4(C(=O)O5)[C@]21O` [Ginkgolide A]: 1.09 and 1.1.
`O=C(O)C(Cc1ccccc1[N+](=O)[O-])=NNc1nc(-c2ccc(Cl)c(Cl)c2)cs1` (mixture of isomers) came in with a fractional viability (2uM) of 0.97 and a fractional viability (10uM) of 0.774.
Regarding `Nc1ccc(O)c(C(=O)O)c1` [Mesalamine], the fractional viability was 1.18 (2uM) and 1 (10uM).
In the same order, the values of `COC(=O)N1CCN(Cc2cccc(NC(=O)Nc3ccc(C)nc3)c2F)CC1` are 1.01 and 0.982.
`O=C(O)CSc1cc(NS(=O)(=O)c2ccc(Br)cc2)c2ccccc2c1O`: the fractional viability is 0.835 (2uM) and 0.365 (10uM).
The matching figures for `CC(C)NC[C@H](O)COc1ccc(CCOCC2CC2)cc1` [Levobetaxolol HCl]: 1.04 and 0.97.
Regarding `COC(=O)C1=C(C)NC(C)=C(C(=O)OC)C1c1ccccc1[N+](=O)[O-]` [Nifedipine], the fractional viability (2uM) came out at 0.946 and the fractional viability (10uM) was determined as 1.16.
For `NC(=O)c1cccc2[nH]c(-c3ccc(C4CCCN4)cc3F)nc12` (stereo unspecified), the fractional viability is, setting by setting: (2uM) 0.735; (10uM) 0.788.
In the same order, the values of `COc1cc2c(cc1O)CC[C@@H]1[C@@H]2CC[C@]2(C)[C@@H](O)CC[C@@H]12` [2-Methoxyestradiol (2-MeOE2)] are 0.704 and 0.592.
In the same order, the values of `C=CCc1cc(OC)c(O)c(C(=O)NCCO)c1` [Alibendol] are 1.18 and 0.869.
For the compound `C#C[C@]1(O)CC[C@H]2[C@@H]3CCC4=CC(=O)CC[C@@H]4[C@H]3CC[C@@]21C` [Norethindrone], the fractional viability turned out to be 0.976 (2uM) and 0.798 (10uM).
As to `CCOc1cn(-c2ccc(F)cc2C)nc1C(=O)Nc1ccc(Oc2ccnc3cc(OC)c(OC)cc23)c(F)c1`, the fractional viability by setting is: (2uM) 0.919; (10uM) 0.773.
Turning to `C#C[C@]1(OC(C)=O)CC[C@H]2[C@@H]3CCC4=C[C@@H](OC(C)=O)CC[C@@H]4[C@H]3CC[C@@]21C` [Ethynodiol diacetate], the fractional viability is 0.883 (2uM) and 0.807 (10uM).
Take `CNC1CCC(N(Cc2cccc(-c3ccncc3)c2)C(=O)c2sc3ccccc3c2Cl)CC1` (stereo unspecified) [Smoothened Agonist (SAG) HCl]: the fractional viability reads like this: (2uM) 0.918; (10uM) 0.259.
The matching figures for `Nc1ccc(S(=O)(=O)Nc2ncccn2)cc1` [Sulfadiazine]: 1.09 and 1.11.
With `CCCC(C)NC(=O)c1ccc(Cl)c(Cl)c1` (stereo unspecified), the fractional viability (2uM) was 0.787 and the fractional viability (10uM) worked out at 0.91.
As to `CCn1c(=O)c(-c2ccc(-c3cncs3)cc2Cl)cc2cnc(Nc3ccc(N4CCN(C)CC4)cc3)nc21`, the fractional viability is, setting by setting: (2uM) 0.914; (10uM) 0.64.
The matching figures for `Cc1cnc(Nc2ccc(N3CCN(C)CC3)cc2)nc1Nc1cccc(S(=O)(=O)NC(C)(C)C)c1`: 0.575 and 0.172.
Take `OC[C@@H](O)[C@@H](O)CO` [Erythritol]: the fractional viability is 0.986 (2uM) and 0.837 (10uM).
As for `O=C1NC(=O)/C(=C/c2ccc(-c3ccc(F)cc3O)o2)S1`, the fractional viability reads like this: (2uM) 0.814; (10uM) 0.742.
The matching figures for `CC(C)CCN1c2nc(Nc3cc(F)c(O)c(F)c3)ncc2N(C)C(=O)C1C` (stereo unspecified): 1.08 and 0.734.
As to `NC1(c2ccc(-c3nc4ccn5c(=O)[nH]nc5c4cc3-c3ccccc3)cc2)CCC1`, the fractional viability reads like this: (2uM) 1.22; (10uM) 0.798.
Take `CN1CCN(CCCNc2ncc(Cl)c(-c3cc4c(C(=O)NC5CC5)cccc4s3)n2)CC1`: the fractional viability reads like this: (2uM) 0.827; (10uM) 0.764.
For `NC(=O)c1noc([C@H](CCCC2CCCCC2)CC(=O)NO)n1`, the fractional viability is, setting by setting: (2uM) 1.1; (10uM) 0.853.
In the same order, the values of `CC[C@@]1(O)C(=O)OCc2c1cc1n(c2=O)Cc2cc3cc(O)ccc3nc2-1` [(S)-10-Hydroxycamptothecin] are 0.179 and 0.157.
Consider `Nc1cccc(S(=O)(=O)N2CCCN(S(=O)(=O)c3ccc4c(c3)OCCO4)CC2)c1`, for which the fractional viability runs as follows: (2uM) 0.783; (10uM) 0.849.
In the same order, the values of `CC[C@H](C)n1cc(C)c2c(C(=O)NCc3c(C)cc(C)[nH]c3=O)cc(-c3ccc(N4CCNCC4)nc3)cc21` are 0.981 and 0.712.
The matching figures for `Cc1cccc(-c2[nH]c(C(C)(C)C)nc2-c2ccc3nccnc3c2)n1`: 1.28 and 1.26.
Turning to `C[C@@H](c1ncncc1F)[C@](O)(Cn1cncn1)c1ccc(F)cc1F` [Voriconazole], the fractional viability reads like this: (2uM) 1.14; (10uM) 1.05.
In the same order, the values of `Cc1c(NC(=O)c2ccc(C(C)(C)C)cc2)cccc1-c1cn(C)c(=O)c(Nc2ccc(C(=O)N3CCOCC3)cc2)n1` are 0.849 and 0.915.
`O=C(O)Cc1ccccc1Nc1c(Cl)cccc1Cl` [Diclofenac Potassium] displayed a fractional viability (2uM) of 0.94 and a fractional viability (10uM) of 0.957.
In the same order, the values of `O=C(O)Cc1ccccc1Nc1c(Cl)cccc1Cl` [Diclofenac Diethylamine] are 0.978 and 0.939.
Turning to `O=C(O)Cc1ccccc1Nc1c(Cl)cccc1Cl` [Diclofenac Sodium], the fractional viability is, setting by setting: (2uM) 1.06; (10uM) 1.06.
As for `CN(C)CCCNC(=O)c1ccc(-c2cc(O)c3ncccc3c2)cc1`, the fractional viability was determined as 0.891 (2uM) and 0.677 (10uM).
In the same order, the values of `C[C@@H]1CC(=O)NN=C1c1ccc(NN=C(C#N)C#N)cc1` [Levosimendan] are 1.34 and 0.837.
In the same order, the values of `CC(=O)Oc1cc(C(F)(F)F)ccc1C(=O)O` [Triflusal] are 0.978 and 0.902.
`N=c1ccn2c(n1)O[C@H]1[C@H](O)[C@@H](CO)O[C@H]12` [Cyclocytidine HCl] yielded a fractional viability (2uM) of 0.827 and a fractional viability (10uM) of 0.813.
Take `CNC(=O)c1ccc2cc([C@@]3(O)CCn4cncc43)ccc2c1` [TAK-700 (Orteronel)]: the fractional viability amounted to 1.18 (2uM) and 1.08 (10uM).
In the same order, the values of `CNC(=O)c1ccccc1Oc1nc(Nc2cc(OC)c(OC)c(OC)c2)ncc1Br` are 0.717 and 0.828.
The matching figures for `C[C@]12C=CC(=O)C=C1CC[C@@H]1[C@@H]2[C@@H](O)C[C@@]2(C)[C@H]1CC[C@]2(O)C(=O)CO` [Prednisolone]: 1.11 and 1.07.
Turning to `O=c1ncn2nc(Sc3ccc(F)cc3F)ccc2c1-c1c(Cl)cccc1Cl`, the fractional viability is 1.36 (2uM) and 1.01 (10uM).
The matching figures for `O=c1[nH]cc(F)c(=O)[nH]1` [Fluorouracil (5-Fluoracil, 5-FU)]: 1.58 and 1.31.
With `Cc1cncc(CN2CCC(=C3c4ccc(Cl)cc4CCc4cccnc43)CC2)c1` [Rupatadine Fumarate], the fractional viability was determined as 1.06 (2uM) and 0.915 (10uM).
In the same order, the values of `CS(=O)(=O)c1ccc([C@@H](O)[C@@H](CO)NC(=O)C(Cl)Cl)cc1` [Thiamphenicol] are 1.02 and 1.07.
The matching figures for `COC(=O)[C@H]1[C@H]2C[C@@H]3c4[nH]c5cc(OC)ccc5c4CCN3C[C@H]2C[C@@H](OC(=O)c2cc(OC)c(OC)c(OC)c2)[C@@H]1OC` [Reserpine]: 1.12 and 0.244.
As to `COc1cc2c(cc1OC)-c1cc3ccc(OC)c(OC)c3c[n+]1CC2` [Palmatine chloride], the fractional viability (2uM) worked out at 0.909 and the fractional viability (10uM) amounted to 0.782.
The matching figures for `C=CCc1ccc(O)c(-c2ccc(O)c(CC=C)c2)c1` [Honokiol]: 0.957 and 1.01.
In the same order, the values of `CNC(=C[N+](=O)[O-])NCCSCc1ccc(CN(C)C)o1` [Ranitidine] are 1.09 and 1.09.
The matching figures for `OCc1ccc(-c2ccc(-c3ccc(CO)s3)o2)s1`: 0.599 and 0.407.
Take `O=c1c(-c2ccc(O)cc2)coc2cc(O)cc(O)c12` [Genistein]: the fractional viability turned out to be 1.18 (2uM) and 0.955 (10uM).
Take `Cc1cc(N2CCOCC2)ccc1Nc1nc(NC2CCCCC2)c2[nH]cnc2n1`: the fractional viability reads like this: (2uM) 0.606; (10uM) 0.744.
`C[C@H](NC(=O)Cc1cc(F)cc(F)c1)C(=O)N[C@@H]1C(=O)N(C)c2ccccc2-c2ccccc21` registered a fractional viability (2uM) of 0.997 and a fractional viability (10uM) of 1.02.
The matching figures for `O=C(O)c1ccc(Nc2ncc3c(n2)-c2ccc(Cl)cc2C(c2c(F)cccc2F)=NC3)cc1`: 0.977 and 0.718.
In the same order, the values of `CSc1cccc(Nc2ncc3cc(-c4c(Cl)cccc4Cl)c(=O)n(C)c3n2)c1` are 0.687 and 0.466.
The matching figures for `CCOc1ccn(-c2ccc(F)cc2)c(=O)c1C(=O)Nc1ccc(Oc2ccnc(N)c2Cl)c(F)c1`: 1.03 and 1.08.
Compound `Cc1nc(Nc2n[nH]c3c2CN(C(=O)N[C@H](CN(C)C)c2ccccc2)C3(C)C)c2sccc2n1` registered a fractional viability (2uM) of 0.376 and a fractional viability (10uM) of 0.237.
In the same order, the values of `N[C@@H]1CN(c2c(F)cc3c(=O)c(C(=O)O)cn([C@@H]4C[C@@H]4F)c3c2Cl)CC12CC2` [Sitafloxacin Hydrate] are 1.13 and 1.37.
In the same order, the values of `CNC[C@H](O)c1cccc(O)c1` [Phenylephrine HCl] are 0.871 and 0.749.
Take `O=C(O[C@@H]1Cc2c(O)cc(O)cc2O[C@@H]1c1cc(O)c(O)c(O)c1)c1cc(O)c(O)c(O)c1` [(-)-Epigallocatechin Gallate]: the fractional viability is 0.981 (2uM) and 0.645 (10uM).
Take `CC(C)C[C@H](NC(=O)CNC(=O)c1cc(Cl)ccc1Cl)B(O)O`: the fractional viability is, setting by setting: (2uM) 0.525; (10uM) 0.254.
In the same order, the values of `COC(=O)c1ccc2c(c1)NC(=O)/C2=C(\Nc1ccc(N(C)C(=O)CN2CCN(C)CC2)cc1)c1ccccc1` [Nintedanib (BIBF 1120)] are 1.32 and 0.372.
On to `N#C[C@@H]1CCCN1C(=O)CNC12CC3CC(CC(O)(C3)C1)C2` [Vildagliptin (LAF-237)], for which the fractional viability reads like this: (2uM) 1.2; (10uM) 0.969.
In the case of `CCN(CC)CCN(Cc1ccc(-c2ccc(C(F)(F)F)cc2)cc1)C(=O)Cn1c(SCc2ccc(F)cc2)nc(=O)c2c1CCC2`, the fractional viability is, setting by setting: (2uM) 0.76; (10uM) 0.0367.
